Our source for the binding signal (log2 normalized intensity) values is publication PMC10726135.

The list shows a part of the results. At the low end of the ranking the order means little. The protein was read in a cell extract, so binding may be indirect.

This experiment has as its target T1, HNF4alpha8 (COS-7 nuclear extract) (UniProt P41235-5).
T1 sequence: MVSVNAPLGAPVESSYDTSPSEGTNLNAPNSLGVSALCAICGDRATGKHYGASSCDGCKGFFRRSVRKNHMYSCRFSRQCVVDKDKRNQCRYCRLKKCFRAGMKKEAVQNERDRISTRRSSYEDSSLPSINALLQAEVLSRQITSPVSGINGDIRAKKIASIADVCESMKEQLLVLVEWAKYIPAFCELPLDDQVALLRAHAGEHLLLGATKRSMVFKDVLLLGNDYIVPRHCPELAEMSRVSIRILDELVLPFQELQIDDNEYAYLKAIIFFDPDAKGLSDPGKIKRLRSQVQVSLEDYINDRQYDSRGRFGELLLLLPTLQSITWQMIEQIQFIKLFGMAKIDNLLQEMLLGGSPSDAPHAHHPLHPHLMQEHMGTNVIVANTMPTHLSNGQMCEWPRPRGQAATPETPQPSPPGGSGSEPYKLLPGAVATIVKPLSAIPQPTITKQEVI
Kind of experiment: protein-binding microarray. The conditions noted are these: COS-7 nuclear extract on double-stranded Agilent 4x180k PBM; binding buffer, salt, pH and temperature not given; high values mean tight binding; double strand, one strand shown; sequences stand for … in …GCCTAGGGAGATTAGAGTATCGGTCGA
With GGTTCTGGCACCTGAAGCTGCCCTTTGCAC, the binding signal (log2 normalized intensity) came to 6.19.

As to CCTCATCTGAAAAAAGCTATCATTTGTCAC, the binding signal (log2 normalized intensity) was -0.193.

On to TATTGTGGGTTCTTGCCCTTTGGTCTGGAA, for which the binding signal (log2 normalized intensity) was found to be 5.29.

As to GAAGACACAAAGCTTGGGTTCACATTCCAG, the binding signal (log2 normalized intensity) turned out to be 1.11.

Regarding TGTGAATCTCCTGCTTTTGGAAAACTGGCC, the binding signal (log2 normalized intensity) came to 0.0534.

With GACTTTGGTTGGATTTCTTGGCTTCTCTTG, the binding signal (log2 normalized intensity) turned out to be 0.989.

Take AGGGGCATCCTCATTGCCTCTGGGCTTTGA: the binding signal (log2 normalized intensity) stood at 0.138.

As for GAACAGATATTGGCCAAAGGGCACAAGAGG, the binding signal (log2 normalized intensity) came out at 2.29.

On to GCTCAGAGGCACAGTCTGCTTTCAGAGATG, for which the binding signal (log2 normalized intensity) is -1.21.

With TGTGTCTCCAGGAGCAATCATCGCACCTAA, the binding signal (log2 normalized intensity) was -1.34.

On to GGCAGCCAGCGCAGGGGCTTCTGCTGAGGG, for which the binding signal (log2 normalized intensity) was -1.37.

GGAGGAAATAGAGAGCAGACAGGGGCTCAG: the binding signal (log2 normalized intensity) was -1.48.

Consider TCAAGGTTTCTTTCCCTGGGGTCAATAGTT, for which the binding signal (log2 normalized intensity) is 4.25.

In the case of TGTGGGTTCAAATCCATTCAGCAGCGTGTA, the binding signal (log2 normalized intensity) was -0.128.

As to CTTAGACAGTAACCCTTGAGCTCTGCACAG, the binding signal (log2 normalized intensity) was 2.11.

TGAGGCTTTTGAGTCAATAATGGACAAGTT: the binding signal (log2 normalized intensity) worked out at 0.981.

As for TAATCCCTTATGACGGACAAAGGGCTCTCT, the binding signal (log2 normalized intensity) is -0.406.

As to GGTACCCTGGCTTGTAATTCAAGACTATAG, the binding signal (log2 normalized intensity) was -0.817.

ATCTCTAAGCAAACATTCCTCCCTCCCTCT: the binding signal (log2 normalized intensity) was 2.77.

Turning to TCCCGGAACCGTCTGCCCAGAGCGGCAGCG, the binding signal (log2 normalized intensity) was -1.29.

TCTCTGTAGGTAAACAGTGACTCATGCAAG: the binding signal (log2 normalized intensity) was 0.144.

Regarding TCCTGACCAGGGGCCAGCAAGAGGTGACCC, the binding signal (log2 normalized intensity) was 4.14.

TTATTGTGAACTGGAGCAAAGGTCACTCTT: the binding signal (log2 normalized intensity) turned out to be 6.18.

Take AACAGGCATCAACTCTATCATACTCAGCTA: the binding signal (log2 normalized intensity) was -1.3.

Consider GTCCGAACTCACTACAAACGCCTCTAAGCT, for which the binding signal (log2 normalized intensity) is -1.32.

Consider CCAGCTGTCACCCAGCCAGAATTCTCCCTG, for which the binding signal (log2 normalized intensity) is -1.36.

For CCTTTGTCCCGTTATGGCACCAAGAAACCT, the binding signal (log2 normalized intensity) is 0.0821.

For ATCTTGGACTTGGGACTCTGCAGACTGGTG, the binding signal (log2 normalized intensity) was 4.29.

As to CCCCCACCTGTGAAGATAAGCTGTCAATTT, the binding signal (log2 normalized intensity) came to 1.5.

With GGCAAGATTTTGTCCTGAGTTATTGGAAGA, the binding signal (log2 normalized intensity) was 0.282.

Regarding CAACGTCCAGAGATTTGCTCGCATTCTTCC, the binding signal (log2 normalized intensity) is -0.919.

Take GTAGGTAAACAGTGACTCATGCAAGCCTGA: the binding signal (log2 normalized intensity) is -1.37.

CCCCAAAGGCAGGCAGCATGGAATGACTTT: the binding signal (log2 normalized intensity) is -0.344.

For GGTCCCACACACCTCAAATGCAGGTGAGAG, the binding signal (log2 normalized intensity) is -1.39.

Take TATCTCTCCAAGGTACTGTGAACTCCAGCT: the binding signal (log2 normalized intensity) worked out at 0.176.

For TAGTGTAGTTCCGCTGCTGTCTCGGGGCCA, the binding signal (log2 normalized intensity) was -1.38.

Consider TACTCTCTTTGGAGTGCTCCCGCCTGACCT, for which the binding signal (log2 normalized intensity) turned out to be 3.1.

On to ACCTTTGCCCTTCTTGTTAACCTCCTATGA, for which the binding signal (log2 normalized intensity) stood at 3.15.

In the case of CTAATGCCACCATTGATCTAACAGGAGGTG, the binding signal (log2 normalized intensity) is -1.26.

On to GCGGTTACTTCGAGTACATTGTAACCACCT, for which the binding signal (log2 normalized intensity) was 0.886.

In the case of TCAGTTAAGGCTTTGAAGTAGGGGCTGCTG, the binding signal (log2 normalized intensity) is -0.875.

As to CCACCTGGTGGCAATGTGTCAGAGAAGGAG, the binding signal (log2 normalized intensity) is -1.34.

Regarding ACTGTGTTGCAAATTATTACTCCCACCGTG, the binding signal (log2 normalized intensity) was 0.0649.

On to GGGTATTTCCTAAACCAACTATAGAAAGCC, for which the binding signal (log2 normalized intensity) was -1.39.

For the sequence GCCCCCTCCCCCTGCCGGCGGCGCAGACGG, the binding signal (log2 normalized intensity) was determined as 4.75.

For the sequence GCCCATAGAATCTTAGGAAAGCACAGCTGA, the binding signal (log2 normalized intensity) was -1.41.

For GTTTTATATGAAAACAAAGGAAACCAAACA, the binding signal (log2 normalized intensity) is -1.03.

For AATATTTAGCTTTCAGTGACTGCTCATTCT, the binding signal (log2 normalized intensity) is -1.17.

In the case of CCAACAGGTCAGGGAGTAGGTTTGATTTGT, the binding signal (log2 normalized intensity) came out at 1.1.

As to GTGGGAAATCATTCCAGCTATTCTGCCTTA, the binding signal (log2 normalized intensity) was -1.25.

With GTGAGTGTGTTGGCAAGAGATCTGCAGGGT, the binding signal (log2 normalized intensity) was 1.02.

Take AGTTTGGTGGACTTTGGCCGTGAAGCCGTC: the binding signal (log2 normalized intensity) turned out to be 6.75.

AACAAATTGTGTGCAACAGGAGCCCAGAGA: the binding signal (log2 normalized intensity) is -1.34.

For the sequence CCAGTTCCCTCATTAGTAACTCCAGAGATA, the binding signal (log2 normalized intensity) was -0.985.

For ATTAACTAACCTTTGAACCAGATGGCCCTC, the binding signal (log2 normalized intensity) is 4.3.

For GAAGCCAGGGGTAAGTTTCTAACTACCATG, the binding signal (log2 normalized intensity) is -1.29.

Regarding ACTTATTACCGGTGTGACTTTGGTTGGATT, the binding signal (log2 normalized intensity) amounted to 1.7.

As to ATGCCTGGGGTTCCAGTTACTGGAGGCTGG, the binding signal (log2 normalized intensity) is -0.354.

Consider CAGGGGGAGGCTCAGAGTCTGTGGAGACAC, for which the binding signal (log2 normalized intensity) was -1.38.

For CCAGGGACCAGGAAGGCAGTAAGAGAGAAA, the binding signal (log2 normalized intensity) was -1.35.

On to ACTGACAGAGATCAAAAACCAAAGCTGGAG, for which the binding signal (log2 normalized intensity) is -1.28.

Turning to ACCCCCCACTCTTCATATCTTCCCATACTG, the binding signal (log2 normalized intensity) was 0.437.

As to TAGGTATGATAACCCCCGTCACTGCAAGGC, the binding signal (log2 normalized intensity) turned out to be 3.49.

As for ACTTGCCACGGAATCCCAGTTCTGATACAC, the binding signal (log2 normalized intensity) was -1.04.

Consider ACCTGCCTAACATTCTCTAATCAGGTCGCT, for which the binding signal (log2 normalized intensity) is -1.25.

Regarding TTCAGAAGACTTCCTGGCCTCTCTGCAAAT, the binding signal (log2 normalized intensity) is -0.39.

For GGGACTTCAAAGGCTCCCCTAATCCCTGTG, the binding signal (log2 normalized intensity) amounted to 0.686.

Consider TGGTTTAGATAAGCACTTCAAAGGTCGTGT, for which the binding signal (log2 normalized intensity) was found to be 3.77.

For ATGTTCCATGTTAGGGGTTTGTCCAAGAAA, the binding signal (log2 normalized intensity) turned out to be 1.95.

As for AAATCACACGAAACAAGTAGCAGTTCAAAA, the binding signal (log2 normalized intensity) was -1.32.

Consider TAAGACAACTTTCTCCTCCAGGACCTTGCC, for which the binding signal (log2 normalized intensity) was -1.09.

Take CCAAAGGGCATTCTGGAGTTTGGAACCAAA: the binding signal (log2 normalized intensity) came out at 4.28.

In the case of ATTTACATTCCAGAGTAAACGTTTCTCTCT, the binding signal (log2 normalized intensity) was -1.29.
